In this assay the test system is primary human hepatic stellate cells (donor 1). The experiment in a line: scaled lipid accumulation score (0 = DMSO-like, 1 = nortriptyline-like); higher = stronger HSC inactivation (lipid re-accumulation), active = hit call of the paper. The settings on record: 48 h.
Where [1] appears, read: library stock concentration: 3.33 mM.
Where [2] appears, read: library stock concentration: 10 mM.
Setting [3] is: library stock concentration: 1 mM.
Where [4] appears, read: library stock concentration: 2 mM.
[5] abbreviates: library stock concentration: 80 uM.
Where [6] appears, read: library stock concentration: 400 uM.

Where “and” joins values, the source holds several entries; their conditions need not be identical. Equal values may be shown once. Where a name gives a salt, the structure may show the parent alone. In all, about 5,800 compounds went through this assay and about 620 (11%) showed activity.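 Rule for the calls: active = score above a cut-off or among the top three wells of a plate; in these data no inactive exceeds 0.85.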 This is a selection; strong and weak results do not stand in their true shares.

Turning to `OCC(O)CN1CCN(c2ccccc2)CC1` (stereo not given) [Dropropizine], the “scaled lipid accumulation score” value is inactive: ≤ 0 under setting [1]; inactive: ≤ -0.001 and inactive: 0.038 under setting [2].

Regarding `CC[C@]1(O)C[C@H]2CN(CCc3c([nH]c4ccccc34)[C@@](C(=O)OC)(c3cc4c(cc3OC)N(C)[C@H]3[C@@](O)(C(N)=O)[C@H](O)[C@]5(CC)C=CCN6CC[C@]43[C@@H]65)C2)C1.O=S(=O)(O)O`, the “scaled lipid accumulation score” value (library stock concentration: 9.7 mM) was active: 1.52.

As to `C[C@H](O)C(=O)C1=Nc2c(nc(N)[nH]c2=O)NC1` [Sepiapterin], the “scaled lipid accumulation score” value under setting [2] was inactive: ≤ 0.

For the compound `COc1cc(N)c(Cl)cc1C(=O)NC1CCN(CCCOc2ccc(F)cc2)CC1OC` (stereo not given) [Cisapride], the “scaled lipid accumulation score” value was inactive: 0.386. Besides, the “scaled lipid accumulation score” value under setting [2] is inactive: 0.291.

For the compound `CCCCCCCCC=CCCCCCCCCCCCC(N)=O` [13-Docosenamide], the “scaled lipid accumulation score” value under setting [3] was inactive: ≤ 0.

Turning to `O=C(O)CCC/C=C/C[C@@H]1[C@@H](/C=C/[C@@H](O)COc2cccc(C(F)(F)F)c2)[C@H](O)C[C@@H]1O` [5-trans Fluprostenol], under setting [3], the “scaled lipid accumulation score” value was inactive: 0.008.

Turning to `CC(C)(C)c1cc(/C=C(\C#N)C(N)=S)cc(C(C)(C)C)c1O` [Tyrphostin AG 879], the “scaled lipid accumulation score” value runs as follows: under setting [1], inactive: ≤ 0; under setting [2], inactive: ≤ 0.

With `CN1CCC(CNc2ccc3ncc(-c4cccc(OC(F)(F)F)c4)n3n2)CC1`, the “scaled lipid accumulation score” value under setting [4] is active: 1.4.

As to `CN(CCCOc1ccc(Cc2ccccc2)cc1)CCC(=O)O`, the “scaled lipid accumulation score” value under setting [2] was inactive: ≤ 0.

Consider `COC1=CC(=O)C[C@@H](C)[C@]12Oc1c(Cl)c(OC)cc(OC)c1C2=O` [Griseofulvin], for which the “scaled lipid accumulation score” value is inactive: 0.178. For the same compound, under setting [1], the “scaled lipid accumulation score” value is inactive: ≤ 0. The “scaled lipid accumulation score” value (library stock concentration: 5.7 mM) was inactive: ≤ -0.001. For the same compound, the “scaled lipid accumulation score” value under setting [2] is inactive: 0.103 and inactive: 0.383 and inactive: 0.011.

Take `Cc1cc(CS(=O)(=O)c2ccccc2)cc(OCc2ccc(CN3CCC[C@@H]3CO)cc2)c1`: the “scaled lipid accumulation score” value under setting [2] is active: 1.03.

On to `CCC(=O)NCC[C@@H]1CCc2ccc3c(c21)CCO3` [Ramelteon], for which the “scaled lipid accumulation score” value is inactive: 0.06 under setting [1]; inactive: ≤ 0 (library stock concentration: 7.7 mM); inactive: ≤ 0 and inactive: 0.067 under setting [2].

With `O[C@@H](COc1cccc2ncccc12)CN1CCN(C2c3ccccc3[C@@H]3[C@H](c4ccccc42)C3(F)F)CC1` (stereo not given in full), the “scaled lipid accumulation score” value runs as follows: under setting [1], inactive: 0.206; under setting [2], inactive: 0.837.

In the case of `CNC(=O)c1c(I)c(NC(C)=O)c(I)c(C(=O)O)c1I`, the “scaled lipid accumulation score” value under setting [2] was inactive: 0.042.

For the compound `C[C@H](NC(=O)/C(C#N)=C/c1ccc(O)c(O)c1)c1ccccc1` [Tyrphostin B44, (+) enantiomer], under setting [2], the “scaled lipid accumulation score” value is inactive: ≤ 0.

On to `C[C@H](NC(=O)/C(C#N)=C/c1ccc(O)c(O)c1)c1ccccc1` [Tyrphostin AG 835], for which the “scaled lipid accumulation score” value under setting [2] is inactive: ≤ 0.

In the case of `COc1ccc(-c2coc3cc(O)cc(O)c3c2=O)cc1` [Biochanin A], the “scaled lipid accumulation score” value reads like this: under setting [1], inactive: ≤ 0; under setting [2], inactive: 0.029.

`COc1ccccc1CNCCCCCCNCCCCCCCCNCCCCCCNCc1ccccc1OC` [Methoctramine tetrahydrochloride]: the “scaled lipid accumulation score” value under setting [2] was inactive: 0.621.

Consider `CCC(=O)Nc1cccc(Oc2nc(Nc3ccc(N4CCN(C)CC4)cc3OC)ncc2Cl)c1`, for which, under setting [2], the “scaled lipid accumulation score” value was active: 1.11.

Take `O=C(NC1CCNCC1)c1n[nH]cc1NC(=O)c1c(Cl)cccc1Cl`: the “scaled lipid accumulation score” value reads like this: under setting [5], inactive: 0.367; under setting [6], inactive: 0.117 and inactive: 0.282; under setting [4], inactive: 0.26 and inactive: 0.49; under setting [1], inactive: 0.109; under setting [2], inactive: 0.212 and inactive: 0.239 and inactive: 0.462.

Take `CC(C)c1noc(N2CCC(COc3ccc(-c4ccc(S(C)(=O)=O)cc4)nc3)CC2)n1`: the “scaled lipid accumulation score” value is inactive: 0.019 under setting [1] and inactive: 0.16 under setting [2].

Consider `CCCCC[C@H](O)/C=C/[C@H]1CCC(=O)[C@@H]1C/C=C\CCCC(=O)O` [11-deoxy Prostaglandin E2], for which the “scaled lipid accumulation score” value under setting [3] is inactive: 0.072.

`CCCCCCCCCCCCCC(=O)N[C@H](CO)[C@H](O)c1ccc([N+](=O)[O-])cc1`: under setting [3], the “scaled lipid accumulation score” value is inactive: 0.012.

In the case of `CC[C@H](Nc1ncnc2[nH]cnc12)c1nc2cccc(F)c2c(=O)n1-c1ccccc1`, the “scaled lipid accumulation score” value was inactive: ≤ -0.016 under setting [5], inactive: ≤ -0.016 under setting [6], inactive: 0.044 under setting [4] and inactive: 0.005 under setting [2].

For `CC[C@H](Nc1ncnc2[nH]cnc12)c1nc2cccc(F)c2c(=O)n1-c1ccccc1` [CAL-101 (Idelalisib, GS-1101)], the “scaled lipid accumulation score” value under setting [1] was inactive: ≤ 0 and the “scaled lipid accumulation score” value under setting [2] was inactive: ≤ 0.

`COc1cc2c(N3CCN(C(=O)Nc4ccc(OC(C)C)cc4)CC3)ncnc2cc1OCCCN1CCCCC1`: under setting [2], the “scaled lipid accumulation score” value is active: 1.24.

(Values after the supplement of paper PMC9135407.)
